Out of some 420,000 compounds screened, about 64,000 (15%) were called active. The inconclusive results got no clear call from the source; some entries with a clear call stand among them for comparison. The call rests on the fitted dose curve; in most records, active means well fitted inhibition curve with a large enough effect; inconclusive means small, poorly fitted or top-dose-only effect; inactive means flat fitted curve, though single readings scatter. Potencies of inconclusive entries are left out as doubtful fits.
test: qHTS for Inhibitors of human tyrosyl-DNA phosphodiesterase 1 (TDP1): qHTS in cells in absence of CPT; conditions: DT40 Tdp1-/- hTDP1 cells, no CPT, ATP luminescence, 48 h; activity change, negative = growth inhibition: at 46.2 µM (top of the series) unless noted; further: nearly all actives have a fitted effect of over 55% in size
Method in brief: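 Seeded 400 DT40-hTDP1 cells/well (vehicle DMSO, no 20 nM CPT); pinned compounds; ≥48 hr at 37 °C; CellTiter-Glo luminescence as viability measure.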
On the % scale 0 is the no-effect control and ±100 the full control effect; potency means the concentration at half of the fitted maximal effect; tags describe the fitted curve by direction and shape.

Compound	Potency	activity change, negative = growth inhibition
CSCCC(C(=O)Nc1c(C)cccc1C)N1CCN(C/C=C/c2ccccc2)CC1 (stereo unspecified)	active: 13 µM	–
O=C(NC(Nc1cc(C(F)(F)F)ccc1Cl)C(=O)c1ccccc1)c1ccccc1 (stereo unspecified)	active: 20.6 µM	–
O=C(Nc1ccccc1)c1cc([N+](=O)[O-])ccc1N1CCCCC1	inconclusive [inhibitor, partial curve]	–
O=C(Nc1ccncc1)c1ccc2ccccc2c1	active: 13 µM	–
O=C(CN1CCOCC1)Nc1ncc(Cc2cccc(Cl)c2Cl)s1	–	inactive: -26.4%
C[C@H](CO)N1C[C@H](C)[C@@H](CN(C)Cc2ccncc2)Oc2c(NC(=O)Cc3ccccc3)cccc2C1=O	inconclusive [inhibitor, single point]	–
O=C(O)C1CCCN1C(=O)Nc1ccc(F)cc1 (stereo unspecified)	–	inactive: -8.53%
Cn1c(SCC(=O)NNC(=S)Nc2ccccc2)nnc1-c1ccccc1	–	inactive: -14.1%
O=C(CSc1cccc2cccnc12)Nc1cc(C(=O)O)cc(C(=O)O)c1	inconclusive [inhibitor, single point]	–
CCN(CC)S(=O)(=O)c1cccc(-c2nnc(SCC#N)n2Cc2ccccc2)c1	inconclusive [inhibitor, partial curve]	–
Cc1ccc(SCC(=O)c2cc(C)c(OC(=S)N(C)C)c(C)c2)cc1	active: 18.4 µM	–
O=C(c1ccc(C(F)(F)F)cc1)N1CCC(=O)N(C(CO)Cc2ccccc2)CC1 (stereo unspecified)	inconclusive [inhibitor, single point]	–
Cc1ccc(C)c(NC(=O)CN2C(=O)COc3ccc(S(=O)(=O)N4CCCC4)cc32)c1	–	inactive: 10.7%
CCc1nc2ccc(C(=O)N3CCN(c4ccccc4)CC3)cn2c1N(C)CCCc1ccccc1	active: 16.4 µM	–
S=c1[nH]nc(CCc2nc3ccccc3[nH]2)n1-c1ccccc1	–	inactive: 11.8%
Cc1cccc(Oc2c([N+](=O)[O-])c(=O)n(C)c3ccccc23)c1	–	inactive: -20.7%
Cc1ccc(S(=O)(=O)NC(N)=NCCc2ccccc2)cc1C	inconclusive [inhibitor, single point]	–
CCc1nc2ccc(C(=O)Nc3cc(-c4ccccc4)ccc3OC)cn2c1N(C=O)CCC(C)C	active: 14.6 µM	–
N#CCCN1CCCc2cc(N=Nc3ccc(C(F)(F)F)cc3)ccc21	inconclusive [inhibitor, single point]	–
CC(C)C[C@@H](CN)NC(=O)c1nc[nH]c1C(=O)N[C@@H](C)C(=O)CNC[C@H](CC(C)C)NC(=O)c1nc[nH]c1C(=O)N[C@@H](CC(=O)O)C(=O)O	–	inactive: -1.81%
CC1CCN(C2=NC(=O)/C(=C/c3ccccc3F)S2)CC1	inconclusive [inhibitor, single point]	–

Source: PubChem BioAssay AID686978 (National Center for Advancing Translational Sciences (NCATS), 2013)
